Whole data set: some 110,000 compounds, median “z-score” near -0.1, cut for the highest 2% near 2. The list shows a part of the results. Activity calls are given as the source filed them.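 How the source made its calls: active means z-score in the third read window above 3 or below -3; inactive means the rest.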
The molecules below were run against Metabotropic glutamate receptor 8 (Rattus norvegicus) (UniProt P70579) (assay: mGluR8 Gi/Go-coupled signaling modulation – cell-based, rat, thallium flux, HTS, primary screen (AID 488969)). Conditions: HEK293 rat mGluR8, GIRK (G protein-gated inwardly rectifying potassium channel) thallium flux, FluoZin2; at 10 µM; stronger effect = higher value; submaximal glutamate (EC20) added with thallium.
Chain of UniProt P70579 (P70579 whole entry, looked up): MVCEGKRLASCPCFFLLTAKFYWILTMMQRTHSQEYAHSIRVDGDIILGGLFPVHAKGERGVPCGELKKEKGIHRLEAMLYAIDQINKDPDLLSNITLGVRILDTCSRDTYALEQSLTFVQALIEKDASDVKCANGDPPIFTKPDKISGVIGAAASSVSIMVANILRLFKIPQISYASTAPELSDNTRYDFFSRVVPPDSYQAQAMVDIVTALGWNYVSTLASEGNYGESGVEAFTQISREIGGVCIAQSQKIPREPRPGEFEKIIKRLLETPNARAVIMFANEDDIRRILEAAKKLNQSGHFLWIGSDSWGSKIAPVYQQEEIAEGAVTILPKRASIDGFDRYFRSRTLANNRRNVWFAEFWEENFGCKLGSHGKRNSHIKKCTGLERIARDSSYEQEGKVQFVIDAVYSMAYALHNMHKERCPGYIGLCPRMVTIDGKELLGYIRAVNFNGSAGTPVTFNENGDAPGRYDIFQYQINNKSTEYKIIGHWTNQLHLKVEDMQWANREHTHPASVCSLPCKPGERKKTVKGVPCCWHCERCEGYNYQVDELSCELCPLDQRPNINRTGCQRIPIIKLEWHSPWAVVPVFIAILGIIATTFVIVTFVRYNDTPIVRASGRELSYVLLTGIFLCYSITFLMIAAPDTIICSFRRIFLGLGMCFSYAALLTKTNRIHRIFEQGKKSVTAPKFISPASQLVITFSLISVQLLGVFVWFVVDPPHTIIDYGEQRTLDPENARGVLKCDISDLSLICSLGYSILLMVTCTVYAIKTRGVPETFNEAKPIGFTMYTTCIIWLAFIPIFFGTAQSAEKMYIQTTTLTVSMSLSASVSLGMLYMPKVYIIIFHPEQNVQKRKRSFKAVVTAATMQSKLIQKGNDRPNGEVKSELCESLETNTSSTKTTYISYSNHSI

SMILES	z-score
NC(=O)c1ccc(NC(=O)C2CCCO2)cc1 (stereo not given)	0.181
CC1CCCC(C)N1C(=O)CSc1nnc(-c2cccs2)o1 (stereo not given)	-0.0409
O=C(NCCO)c1nc(NCCO)c2ccccc2n1	-0.268
CC1CCCCN1S(=O)(=O)c1ccc(NC(=O)c2cccs2)cc1 (stereo not given)	-0.377
CC(=O)NCCNC(=O)CCNC(=O)c1ccc(Cl)cc1	-0.00998
CCC(c1nnnn1C(C)(C)C)N1CCN(C2CCCC2)CC1 (stereo not given)	0.224
CC(C)Cc1nc(N2CCN(C(=O)c3ccco3)CC2)c(C#N)c2c1CCC2	-0.385
O=C(Nc1ccc(Cl)c(Cl)c1)Nc1cc(S(=O)(=O)N2CCOCC2)ccc1N1CCCC1	0.00467
COCCSc1ccccc1C(=O)NCc1ccc2c(c1)OCO2	0.622
COC(=O)C1=C(C)NC(=O)C1(NS(=O)(=O)c1ccc(C)cc1)C(F)(F)F (stereo not given)	-0.144
O=C(CNC1CCCCCC1)c1cccs1	-0.0287
CCc1nnc(NC(=O)CSc2nnc(Cc3ccccc3)o2)s1	-0.2
CCOC(=O)c1c(NC(=O)c2ccco2)sc2c1CCCCC2	-0.506
CC(C)SCCCOc1ccc(C(C)(C)C)cc1	0.0236
CSc1ccccc1NC(=O)c1noc2c1CCC2	-0.51
COc1ccccc1NC(=S)N1C2CCC1CC(NC(=O)NC13CC4CC(CC(C4)C1)C3)C2 (stereo not given)	-1.59
Cc1cc(NC(=O)c2ocnc2C)no1	0.00862
CSc1nc2ccccc2n1Cc1c(Cl)cccc1Cl	-0.261
O=C(O)c1ccc(-n2c(-c3ccccc3)n[nH]c2=S)cc1	0.205
CC1CN(C(=O)COC(=O)[C@@H]2CC(O)CN2S(=O)(=O)c2ccc3c(c2)OCCO3)CC(C)O1 (stereo not given in full)	0.119
CC(C)c1ccc(/C=C(/C#N)c2nnc(NC(=O)c3ccccc3)s2)cc1	-0.368
Cc1cc(=O)oc(C)c1C(=O)NCC1CCCO1 (stereo not given)	-0.0129

SMILES	z-score
CCN(CC)C(c1ccc(F)cc1)c1nnnn1CC1CCCO1 (stereo not given)	0.155
COC(=O)C1=C(C)Nc2ncnn2C1c1ccco1 (stereo not given)	-0.221
COc1cc(-c2noc(CCCC(=O)NCc3ccccc3)n2)cc(OC)c1OC	0.322
O=C(CCc1ccccc1)Nc1nncs1	-0.0191
O=C(CNC(=O)/C(=C\c1ccc(F)cc1)NC(=O)c1ccccc1)OCc1ccccc1	-0.0481
Cc1ccc(-c2nn(C)c(=O)c3ccccc23)cc1S(=O)(=O)N1CCCC1	-0.238
COc1ccc(/C=N/OCC(=O)N2CC3(C)CC2CC(C)(C)C3)cc1 (stereo not given)	-0.154
COc1cc2[nH]c3c(N4CCN(c5ccccn5)CC4)ncnc3c2cc1OC	-0.28
O=C(c1ccco1)N1C2C=CC(C2)C1(C(F)(F)F)C(F)(F)F (stereo not given)	0.144
CCCCSc1nc2sc3c(c2c(=O)[nH]1)CCC3	0.338
C/C(=C\C(=O)c1ccc(Br)cc1)N1CCCCC1	-0.646
O=C(C1=C(O)C(=O)N(CCN2CCOCC2)C1c1cccnc1)c1cc2ccccc2o1 (stereo not given)	0.521
CCOc1ccc(N/C(C)=C/C(=O)c2ccc(C)o2)cc1	0.126
Cc1ccc(NS(=O)(=O)c2ccc(CCC(=O)NCCO)cc2)cc1	-0.659
Cc1ccc(N2C(=O)c3oc4ccccc4c(=O)c3C2c2cccc(O)c2)nc1 (stereo not given)	-0.485
CCN(CC)C(=O)CN(c1ccc(C)cc1)S(=O)(=O)c1ccc(SC)cc1	-1.31
CCOC(=O)N1CCN(C(=O)COc2ccccc2OC)CC1	0.191
CCN1CC=C2C(C#N)=C(N)C(C#N)(C#N)[C@H](c3ccoc3)[C@H]2C1	-0.115
COc1cccc(C2C(C(=O)c3sc(C)nc3C)=C(O)C(=O)N2CCN2CCOCC2)c1OC (stereo not given)	-0.182
CC1CCC(NC(=O)C2CCC(CNS(=O)(=O)c3cccc4nsnc34)CC2)CC1 (stereo not given)	-0.141
Cc1cccc(C)c1OCC(=O)Nn1c(C)nc2ccccc2c1=O	-0.0405
CSc1nc(C)cc(-n2cc(F)c(=O)[nH]c2=O)n1	0.229

SMILES	z-score
CC(=O)n1nc(-c2cccc(C)c2)nc1SCC(=O)Nc1ccccc1	-0.411
COc1cccc(C=Nc2ccc(C)c(F)c2)c1O	-0.642
COc1ccccc1NC(=O)N1CCN(c2ccc(F)cc2)CC1	0.16
Cc1cc2c(c(=O)n1C)C(C(C)C)C(C#N)=C(N)O2 (stereo not given)	0.185
Cc1ccc(-n2c(=O)cc(N3CCN(Cc4ccccc4)CC3)[nH]c2=O)cc1	-0.339
Cc1ccc(O)c(NC(=O)c2cc3nc4c(c(C(F)(F)F)n3n2)CCc2ccccc2-4)c1	-0.113
CN1CCN(C(=S)Nc2cc([N+](=O)[O-])ccc2Cl)CC1	-0.223
CCN(CC)c1ccc(NC(=O)/C=C\c2ccccc2Cl)cc1	-0.341
CCOC(=O)C(=CNc1ncccc1C)C(=O)OCC	-0.543
Cc1ccc(C)c(S(=O)(=O)N2CCN(C(C(=O)Nc3ccc(F)cc3)c3ccccc3)CC2)c1 (stereo not given)	0.0839
CSc1nc(-c2ccco2)nn1S(=O)(=O)c1ccccc1	0.0248
O=C(NC1CCCCC1)C(Cc1ccccc1)N1C(=O)C2C3CCC(C3)C2C1=O (stereo not given)	-0.0883
Cc1ccc(O)c(CNc2ccccn2)c1	0.0906
O=c1c2c(nc3n1CCCCC3)-c1ccccc1CC21CCCCC1	0.0952
O=C(NNC(=O)c1cccnc1SCc1cccc([N+](=O)[O-])c1)c1cccnc1	active: -5.85
O=C(c1ccc(N2C(=O)CCC2=O)cc1)N1CCN(c2ccccc2)CC1	0.218
COc1cccc(-c2nnn(C/C(N)=N/O)n2)c1	-0.115
CCOc1ccc(C(=O)Nc2ccc(NC(=O)c3ccco3)c(Cl)c2)cc1Br	-0.104
CCOc1ccccc1C(=O)NC1CCN(Cc2nnnn2C2CCCC2)CC1	-0.65
O=C(CCCN1C(=O)c2cccc3cccc(c23)C1=O)N1CCN(c2ccccn2)CC1	0.0204
Cc1cc(/C=C2/SC(=O)N(CC(=O)OC(C)C)C2=O)c(C)n1C	-0.555
CCC(=O)N1CCN(c2ccccc2NC(=O)c2ccc(OC)c(Cl)c2)CC1	-0.323

SMILES	z-score
FC(F)(F)c1cccc(NC(=S)N2CCN(c3cccc(C(F)(F)F)c3)CC2)c1	-0.191
COc1ccc2[nH]c(=O)c(CN(Cc3cccs3)S(=O)(=O)c3cccc4nsnc34)cc2c1	0.0513
COc1ccc(C2C(C#N)=C(N)N(c3ccccc3)C3=C2C(=O)CCC3)cc1Cn1cc([N+](=O)[O-])cn1 (stereo not given)	-0.119
CCNc1nc(NCC)nc(OCCNS(=O)(=O)c2cc(C)ccc2C)n1	0.22
Cc1csc(NC(=O)CSc2nnc(Cn3c(=O)sc4ccccc43)n2-c2ccccc2)n1	0.298
CCOC(=O)Nc1ccc2c(c1)Nc1ccccc1S2	-0.571
CC1(C)CC(=O)C(C(C2=C(O)CC(C)(C)CC2=O)c2ccc(Br)s2)C(=O)C1 (stereo not given)	-0.495
O=C1c2ccccc2N2C(=O)c3ccccc3[C@H]2N1c1ccccc1	-0.361
O=C(N1CCOCC1)N1CCC(n2nnc3cc(F)ccc32)CC1	0.107
Cc1occc1C(=O)Nc1nccs1	-0.178
CCC(C)(C(=O)NC1CCCCC1)N(C(=O)c1ccccn1)c1ccc(C)cc1 (stereo not given)	-0.103
O=C(CN1C(=O)c2cccnc2C1=O)c1ccccc1	-0.164
O=c1c2cc3c(=O)n(CC4CCCO4)c(=O)c3cc2c(=O)n1CC1CCCO1 (stereo not given)	0.192
O=C(NCc1cccs1)c1cc(-c2ccccc2)nc2ccccc12	0.193
CCCc1cc(SCC(=O)Nc2c(C)n(C)n(-c3ccccc3)c2=O)n2c(nc3ccccc32)c1C#N	-0.0712
C#CCn1cc(/C=N/NC(=O)c2cc3ccccc3o2)c2ccccc21	-0.24
N#Cc1ccc(C(=O)Nc2ccc(S(=O)(=O)NC3=NCCCCC3)cc2)cc1	0.109
CCCNc1nc(OC(C(F)(F)F)C(F)(F)F)nc(OC(C(F)(F)F)C(F)(F)F)n1	0.00419
COc1ccc(C2C(C(=O)c3ccco3)=C(O)C(=O)N2CCOCCO)cc1OC (stereo not given)	-0.0423
S=C(NNc1ccnc2cc(Cl)ccc12)Nc1ccccc1Cl	-0.546
CN(C)c1oc(-c2ccc(Cl)cc2)nc1S(=O)(=O)c1ccccc1	-0.0312
CCN1c2cccc3cccc(c23)S1(=O)=O	-0.163

SMILES	z-score
Cc1cc2ccccc2c(=O)n1CC(=O)NCC(=O)N1CCN(c2ccccc2F)CC1	0.731
O=C(c1ccc(Cl)cc1)c1oc2ccccc2c1CS(=O)c1ccccc1 (stereo not given)	-0.623
O=C(CC1(C(=O)O)CCCC1)N1CCOCC1	0.113
O=C(c1cc2ccccc2oc1=O)N(Cc1ccco1)Cc1cccs1	-0.741
Cc1cc(=O)n2[nH]cc(C(=O)O)c2n1	-0.102
COc1ccc(NC(=O)c2cc(-c3ccc(C)o3)nc3ccccc23)cc1OC	-0.371
Cc1ccc(C)n1-c1cc(S(=O)(=O)N2CCOCC2)ccc1N1CCCC1	-0.688
Cc1ccc(-n2c(SCC(=O)Nc3ccc4c(c3)OCO4)nnc2-c2ccccn2)cc1	0.123
CCOC(=O)C(=CNc1cc(C)nn1-c1ccccc1)C(=O)OCC	-0.935
C=C1C2(C(=O)Nc3ccc(SC(F)F)cc3)CCC(C2)C1(C)C (stereo not given)	0.546
O=C(Cc1ccccc1[N+](=O)[O-])NCc1ccccc1Cl	0.128
O=C(C1CC1)N1CCC(C(O)(c2ccccc2)c2ccccc2)CC1	-0.37
OCCCc1nc2n(n1)C(c1cccs1)C=C(c1ccccc1)N2 (stereo not given)	2.68
CC(=O)c1c(C)[nH]c(C(=O)OCC(=O)Nc2cccc(S(=O)(=O)N3CCCC3)c2)c1C	0.16
Cc1cc(C)c([N+](=O)[O-])cc1-c1ccc(/C=N/NC(=O)c2nonc2N)o1	-0.911
O=S(=O)(c1ccc(Cl)cc1)N1CCn2c1nc1ccccc12	0.858
CCOc1ccc(OCc2ccc(C(=O)Nc3cccnc3)o2)cc1	-0.0433
O=C(O)C1(c2cccc(Cl)c2)CCC1	-0.0757
Cc1cccc(-c2cc(C(=O)NCCCn3ccnc3)c3ccccc3n2)c1	-0.224
O=C(Nc1cccs1)Nc1ccc(Br)cc1F	0.678
Cc1ccccc1NC(=O)c1ccc(COc2ccc3c(C)cc(=O)oc3c2)cc1	-0.115
Clc1ccccc1CSc1nc2ccncc2[nH]1	0.533
